Test results as given in PubChem BioAssay AID504333 (National Center for Advancing Translational Sciences (NCATS), 2011).
Out of some 360,000 compounds screened, about 16,000 (4.4%) were called active. Inconclusive results, whose numbers are uncertain, are shown with a selection of clear calls. Calls follow the shape of the dose curve; as a rule, active = well fitted inhibition curve with a large enough effect; inconclusive = small, poorly fitted or top-dose-only effect; inactive = no such curve, though single readings can be large or run the other way. Potencies beside an inconclusive call are fits to weak or partial responses and may not hold up.

target: Bromodomain adjacent to zinc finger domain protein 2B (Homo sapiens) (UniProt Q9UIF8); assay: qHTS Assay for Inhibitors of BAZ2B; conditions: AlphaScreen BAZ2B-H3K14Ac peptide displacement; series mostly up to 114 µM; also: nearly all actives have a fitted effect of over 60% in size
Sequence of UniProt Q9UIF8 (Q9UIF8 whole entry, looked up, the tested form may be a part): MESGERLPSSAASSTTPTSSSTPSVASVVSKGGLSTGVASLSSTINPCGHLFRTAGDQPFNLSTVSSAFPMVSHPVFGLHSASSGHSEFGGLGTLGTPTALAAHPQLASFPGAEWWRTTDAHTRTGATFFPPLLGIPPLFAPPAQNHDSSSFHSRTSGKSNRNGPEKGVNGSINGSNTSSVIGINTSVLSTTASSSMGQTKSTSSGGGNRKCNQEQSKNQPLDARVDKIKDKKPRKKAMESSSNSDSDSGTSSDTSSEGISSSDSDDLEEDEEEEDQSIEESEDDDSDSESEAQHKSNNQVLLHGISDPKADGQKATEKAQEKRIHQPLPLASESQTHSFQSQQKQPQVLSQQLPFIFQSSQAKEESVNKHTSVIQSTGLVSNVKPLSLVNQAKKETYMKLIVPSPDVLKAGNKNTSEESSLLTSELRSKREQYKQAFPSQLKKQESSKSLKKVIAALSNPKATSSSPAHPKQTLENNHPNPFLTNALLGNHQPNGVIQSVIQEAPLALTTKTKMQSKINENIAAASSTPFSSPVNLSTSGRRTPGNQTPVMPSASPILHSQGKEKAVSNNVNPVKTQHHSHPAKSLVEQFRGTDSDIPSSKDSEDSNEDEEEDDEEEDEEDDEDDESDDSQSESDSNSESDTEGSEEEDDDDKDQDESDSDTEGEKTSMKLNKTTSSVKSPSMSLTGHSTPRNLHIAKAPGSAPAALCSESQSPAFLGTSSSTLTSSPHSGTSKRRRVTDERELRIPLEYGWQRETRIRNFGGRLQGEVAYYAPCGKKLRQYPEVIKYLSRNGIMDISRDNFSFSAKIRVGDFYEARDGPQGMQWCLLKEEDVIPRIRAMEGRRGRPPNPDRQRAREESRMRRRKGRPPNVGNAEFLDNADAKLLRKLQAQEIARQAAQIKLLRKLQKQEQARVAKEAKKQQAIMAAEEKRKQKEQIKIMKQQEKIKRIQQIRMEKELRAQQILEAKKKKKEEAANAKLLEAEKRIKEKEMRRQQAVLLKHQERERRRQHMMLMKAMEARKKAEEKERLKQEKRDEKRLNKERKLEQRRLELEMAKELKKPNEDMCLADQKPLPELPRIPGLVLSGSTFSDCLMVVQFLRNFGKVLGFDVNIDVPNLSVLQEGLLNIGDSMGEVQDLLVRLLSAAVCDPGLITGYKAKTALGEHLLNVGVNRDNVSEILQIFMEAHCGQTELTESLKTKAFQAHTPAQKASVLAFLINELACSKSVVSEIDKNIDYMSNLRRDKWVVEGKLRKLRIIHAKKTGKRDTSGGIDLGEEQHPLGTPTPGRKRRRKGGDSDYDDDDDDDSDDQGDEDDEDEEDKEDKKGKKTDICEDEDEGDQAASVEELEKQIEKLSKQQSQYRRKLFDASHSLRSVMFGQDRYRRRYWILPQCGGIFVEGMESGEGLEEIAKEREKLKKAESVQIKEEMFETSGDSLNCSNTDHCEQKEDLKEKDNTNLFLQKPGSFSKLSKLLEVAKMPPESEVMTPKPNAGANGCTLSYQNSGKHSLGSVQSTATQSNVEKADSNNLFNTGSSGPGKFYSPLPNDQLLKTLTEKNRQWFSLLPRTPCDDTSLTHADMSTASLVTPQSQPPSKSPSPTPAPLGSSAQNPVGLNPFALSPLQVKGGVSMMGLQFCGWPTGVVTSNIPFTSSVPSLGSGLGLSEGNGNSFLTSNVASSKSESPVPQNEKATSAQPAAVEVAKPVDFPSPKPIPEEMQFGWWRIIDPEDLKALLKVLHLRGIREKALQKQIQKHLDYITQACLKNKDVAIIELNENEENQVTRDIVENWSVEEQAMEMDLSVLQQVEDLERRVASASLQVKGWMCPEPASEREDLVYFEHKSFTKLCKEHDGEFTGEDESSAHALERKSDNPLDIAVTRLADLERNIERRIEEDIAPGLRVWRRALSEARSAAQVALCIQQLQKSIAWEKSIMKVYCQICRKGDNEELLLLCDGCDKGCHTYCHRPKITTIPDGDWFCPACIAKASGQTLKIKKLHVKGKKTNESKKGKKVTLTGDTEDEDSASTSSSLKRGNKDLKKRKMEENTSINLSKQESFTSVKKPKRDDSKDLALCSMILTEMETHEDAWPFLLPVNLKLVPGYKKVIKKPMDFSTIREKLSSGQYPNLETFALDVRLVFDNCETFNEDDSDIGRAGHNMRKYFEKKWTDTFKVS
Outline: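 Inhibition is scored as reduced AlphaScreen emission. The BAZ2B/b-H3(5-23)K14Ac complex (50 nM each) in PBS pH 7.4, 0.01% Tween-20 meets compound (up to 110 uM) for 30 min at RT before bead addition.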
Potency is read from the fitted curve at half-maximal effect; tags tell the direction and shape of the fitted curve.

SMILES | Potency
COc1ccc(OCc2cc(C(=O)NCCN3CCCC(O)C3)no2)c(Cl)c1 (configuration not stated) | inactive
O=C(NCC(c1ccco1)N1CCCCC1)c1cccc(S(=O)(=O)Nc2ccc(F)cc2)c1 (configuration not stated) | inconclusive: 89.1 µM [inhibitor, single point]
O=c1[nH]nc(CNc2ccc(O)cc2)c2ccccc12 | inconclusive: 50.1 µM [inhibitor, partial curve]
Cc1cccc(-c2sc(Nc3ccccc3)n[n+]2-c2ccccc2)c1 | active: 50.1 µM
CC(=C\C(=O)O)/C(=C/c1ccc(C)o1)C(=O)O | inconclusive: 89.1 µM [inhibitor, single point]
NC1=CC(=O)c2cccc3cccc1c23 | inconclusive: 89.1 µM [inhibitor, single point]
CN1C(=O)/C(=C/c2ccc(-c3ccccc3[N+](=O)[O-])o2)SC1=Nc1ccc(Cl)c(C(=O)O)c1 | active: 44.7 µM
Cc1ccc(S(=O)(=O)N2CCC(C(=O)N[C@@H](C)C(=O)Nc3ccc4c(c3)OCO4)CC2)cc1 | inactive
NS(=O)(=O)c1ccc2c(c1)C(=NO)c1cc(S(N)(=O)=O)ccc1-2 | inactive
COC(=O)C1=C(C)N(Cc2ccccc2)C(=O)N[C@H]1c1ccc(Br)cc1 | inactive
CC(=O)Nc1ccc(NS(=O)(=O)c2ccc3[nH]c4c(c3c2)CCCCC4)cc1 | inactive
CCn1c(SCC(=O)c2cc(C)n(CC3CCCO3)c2C)nc2ccccc21 (configuration not stated) | inconclusive: 79.4 µM [inhibitor, single point]
C#CCOCCOCCOCCNc1nc(N2CCN(C(=O)CCCCCCCCCCNC(=O)Cn3cc(CCCCCN)nn3)CC2)nc(N2CCN(C(=O)CCCCCCCCCCNC(=O)[C@H](CO)n3cc(CCCCCN)nn3)CC2)n1 | inconclusive: 50.1 µM [inhibitor, partial curve]
Cc1cc2c(cc(C(=O)OCC(=O)NCc3cccs3)n2C(C)C)o1 | inconclusive: 79.4 µM [inhibitor, single point]
CNC(=O)C1CCN(Cc2cc3ccccc3n2Cc2cccc(C)c2)CC1 | inconclusive: 79.4 µM [inhibitor, partial curve]
CNC(=S)N(CCc1c(C)[nH]c2ccc(C)cc12)Cc1ccco1 | active: 50.1 µM
CCc1cc2ccccc2nc1SCC(=O)NC1CCCC1 | inactive
O=C(Nc1ccc(O)cc1)/C(=C\C=C\c1ccccc1)NC(=O)c1ccccc1 | inconclusive: 79.4 µM [inhibitor, partial curve]
CCCCNS(=O)(=O)c1cc(-c2nn(C)c(=O)c3ccccc23)ccc1C | inconclusive: 79.4 µM [inhibitor, single point]
CCn1cc(C(=O)O)c(=O)c2cc(F)c(N3CCN(C(=S)NC(=O)c4ccccc4Cl)CC3)cc21 | inconclusive: 56.2 µM [inhibitor, partial curve]
Cc1c(CC(=O)O)c(=O)oc2c(C)c(OCc3ccccc3Br)ccc12 | active: 50.1 µM
COc1cccc(Cn2c(C)c(CNCc3ccccc3Cl)c(C(=O)O)c2C)c1 | inactive
Cc1ccccc1OCc1ccc(-c2nc(C#N)c(N3CCN(c4ccccc4)CC3)o2)o1 | inconclusive: 22.4 µM [inhibitor, partial curve, poor fit]
CCc1ccccc1NC(=O)c1sc2nc3n(c(=O)c2c1C)CCC3 | inactive

SMILES | Potency
CCc1ccc(-n2c(Cn3nc(C(F)(F)F)cc3C)n[nH]c2=S)cc1 | inconclusive: 89.1 µM [inhibitor, single point]
CCc1cc(-c2n[nH]c(=S)n2Cc2ccccc2)cs1 | inactive
CCN1CCOC(=O)C1CC(=O)Nc1ccc(C(C)=O)cc1 (configuration not stated) | inconclusive: 44.7 µM [inhibitor, partial curve]
CCCCNC(=S)Nc1ccccc1F | inconclusive: 89.1 µM [inhibitor, single point]
O=C(NCCCc1ccncc1)C1CCC(=O)N(Cc2cccc(F)c2)C1 (configuration not stated) | inactive
C#CCOCCOCCOCCNc1nc(N2CCN(C(=O)[C@H]([C@@H](C)CC)n3cc([C@@H](N)CC(C)C)nn3)CC2)nc(N2CCN(C(=O)[C@H](Cc3ccc(O)cc3)n3cc([C@@H](N)C(C)CC)nn3)CC2)n1 (some centres not stated) | active: 79.4 µM
CC(C)c1ccc(OCC(O)CN2CCN(c3ccccn3)CC2)cc1 (configuration not stated) | inconclusive: 89.1 µM [inhibitor, single point]
CCn1c(=N)n(CC(=O)C(C)(C)C)c2ccccc21 | inconclusive: 79.4 µM [inhibitor, single point]
CC(=O)c1ccc(NC(=O)CSc2nnc(NC(=O)Nc3ccccc3)s2)cc1 | inactive
COc1ccc(C2(c3ccc(OC)cc3)NC(=O)N(CC(=O)Nc3ccccc3)C2=O)cc1 | inactive
O=C(N/N=C/c1ccc(OC(=O)c2ccccc2)cc1)c1cccnc1 | inconclusive: 89.1 µM [inhibitor, single point]
COc1ccc(Cl)cc1NC(=O)c1ncn(-c2ccccc2)n1 | inactive
CCOC(=O)c1cnc2ccc(C(=O)OC)cc2c1Nc1ccc(N2CCOCC2)cc1 | active: 17.8 µM
CN(C)CCCN(C(=O)c1ccco1)c1nc2ccc(Cl)cc2s1 | inconclusive: 25.1 µM [inhibitor, full curve]
C=CCNc1nc(C(=O)OCC(=O)Nc2ccc(S(N)(=O)=O)cc2)cs1 | active: 89.1 µM
C=CCc1ccc(OCCCOc2ccc(C)c(C)c2)c(OC)c1 | inactive
CC(C)CC(COCc1ccc([N+](=O)[O-])cc1)N1CCN(C(=O)c2ccc(C(F)(F)F)cc2)CCC1=O (configuration not stated) | inconclusive: 79.4 µM [inhibitor, partial curve]
C/C(=N\Nc1ccccc1C(=O)O)c1ccncc1 | inactive
COCCCN1C(=O)C(O)=C(C(=O)c2ccco2)C1c1ccccc1 (configuration not stated) | inconclusive: 100 µM [inhibitor, single point]
CCN1CCSc2ccc(C(=O)NCc3ccccc3Br)cc21 | inconclusive: 25.1 µM [inhibitor, full curve]
CN1CCC(=NNc2ncnc3sc4c(c23)CCCC4)CC1 | inconclusive: 79.4 µM [inhibitor, single point]
CCOc1cc(C(=O)N[C@@H](C)C(=O)N2CCC3(CC2)NCCc2[nH]cnc23)cc(OCC)c1OCC | inactive
Cc1[nH]n(-c2ccccc2)c(=O)c1/C=N/Nc1nncc(-c2ccccc2)n1 | active: 4.47 µM
CCC(C)(C)NC(=O)C(c1ccccn1)N(C(=O)c1csnn1)C1CCCCC1 (configuration not stated) | inconclusive: 89.1 µM [inhibitor, single point]

SMILES | Potency
CCCCOc1ccc(C(=O)N(Cc2ccco2)Cc2ccco2)cc1 | inactive
Cc1cc(C(=O)COC(=O)[C@H](C)NC(=O)c2ccco2)c(C)n1Cc1ccco1 | inconclusive: 56.2 µM [inhibitor, partial curve]
COC(=O)c1ccc([C@H]2Nc3ccc(S(=O)(=O)Nc4cccc(C)c4)cc3[C@H]3C=CC[C@H]32)cc1 | active: 39.8 µM
CC1(OC(=O)C2CCCC2)C(=O)C=C2C=C(c3ccsc3)N(Cc3ccc4c(c3)OCO4)C=C2C1=O (configuration not stated) | inconclusive: 35.5 µM [inhibitor, partial curve]
CCOC(=O)c1sc(NC(=O)C2CC(=O)N(c3ccc(C)cc3)C2)nc1C (configuration not stated) | inconclusive: 79.4 µM [inhibitor, single point]
O=C(Nc1cc(C(F)(F)F)ccc1Cl)c1cnn(-c2ccccc2)c1-n1cccc1 | inactive
CN(/N=C/c1cccc(Br)c1)C1=NS(=O)(=O)c2ccccc21 | inactive
O=C(Nc1ccccc1Br)c1ccc(OC(=S)N2CCOCC2)cc1 | inactive
Cc1ccc(/C=C/C(=O)Nc2ncc(C)s2)o1 | inconclusive: 50.1 µM [inhibitor, partial curve]
O=C(CNC(=O)c1ccc(Cl)cc1Cl)OCCCn1c(=O)[nH]c2ccccc21 | inactive
CCCC(=O)N(CCN1CCOCC1)c1nc2c(OCC)cccc2s1 | inactive
Cc1ccc(S(=O)(=O)N(CCC(=O)O)Cc2ccc(Cl)cc2)cc1 | inactive
CCN(Cc1ccccc1)S(=O)(=O)c1ccc(F)c(C(=O)Nc2cc(C(F)(F)F)ccc2Cl)c1 | inactive
CCNc1nc(NC(C)(C)C)nc(SC(C(C)=O)C(C)=O)n1 | inconclusive: 89.1 µM [inhibitor, single point]
COC(=O)c1ccc(CSc2nc3ccc(S(N)(=O)=O)cc3[nH]2)cc1 | inconclusive: 89.1 µM [inhibitor, single point]
CN1CCN(C2=C(Cl)C(=O)N(c3ccc(Cl)c(Cl)c3)C2=O)CC1 | inconclusive: 89.1 µM [inhibitor, single point]
COC(=O)Cc1c(C)nc2nc(-c3ccc(C)cc3)[nH]n2c1=O | inactive
COc1ccc(NC(=S)N(CCc2c(C)[nH]c3ccc(C)cc23)Cc2cccs2)cc1 | inconclusive: 39.8 µM [inhibitor, partial curve]
O=C(Nc1cccc2ncccc12)c1ccc(Cl)cc1 | active: 11.2 µM
O=C(NCCc1ccc(Cl)cc1)C1CCN(C(=O)c2sccc2-n2cccc2)CC1 | inconclusive: 89.1 µM [inhibitor, single point]
O=c1c2ccccc2nc(-c2ccc(Cl)cc2)n1CCCOc1ccccc1F | inactive
CCn1nc(NS(=O)(=O)c2ccc(NC(C)=O)cc2)c2cc3cc(C)ccc3nc21 | inconclusive: 56.2 µM [inhibitor, partial curve]
COc1cc(/C=C2/NC(=O)N(Cc3ccccc3F)C2=O)ccc1Oc1ccc([N+](=O)[O-])cn1 | inactive
O=C(Nc1ccc(-c2nc3ccccc3[nH]2)cc1)c1ccc2c(c1)OCO2 | inconclusive: 89.1 µM [inhibitor, single point]
